The other results are listed elsewhere or left out.
test system: PfSIP2 AP2 domain 1 (GST-tagged); assay: gcPBM binding intensity (ln(normalized median fluorescence intensity)); higher = stronger DNA binding
In short: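 Binding intensity values are the highest Masliner-normalised natural-log median intensity among replicate spots of either probe orientation. The binding step lasted 1 h in 1× PBS with 1% milk, 0.2 mg/ml BSA, 0.5% salmon testes DNA and 0.03% Triton X-100, using GST-tagged P. falciparum DNA-binding domains expressed in E. coli on an Agilent 4 × 180k array of primer-extended double-stranded 36-bp intergenic genomic probes plus negative controls. Alexa488 anti-GST antibody and a 488 nm scan detected bound protein.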

Sequence	gcPBM binding intensity (ln)
TAATATTGACTATATACACACATATATATATATATA [CACACA_site575]	9.62
GTACAAAAAAAAATAAAATACATATATATATATATA [GTGCAC_negctrl_site364]	9.59
AAAAAATTCATATATACACACACGCACATATATATA [CACACA_site4226]	7.48
TATTATATATATGTTGACATATTTGTACACTCCACT [TGCATGCA_negctrl_site200]	7.2
AAAATATTTCATATATGTACTTAAAAAAAAAAAAAA [XGTACX_site5399]	7.11
GAATATATAAGATACACACACAAATTAAATATAAAA [CACACA_site2781]	7.07
AAAAAAAAAAAAAACACACACACACGCATAAATATA [CACACA_site6217]	7.42
CACTTTTCTGGAAAAATTCCCACATTTTTTTATTAA [GTGCAC_negctrl_site322]	6.98
GATAAAGTACTTTATACACACAAATATTTATTTATA [CACACA_site7795]	7.04
TCTTCATATAAGAACACATGCAGATTTTTATTATTG [TGCATGCA_site682]	6.94
TTATGTAAAAAAAAAAAAAAAAAAAAAAAAAAAAAA [CACACA_negctrl_site984]	6.93
CATATAATATAATTATGTACATATATAATAATATAC [XGTACX_site5278]	7.11
AAAAAAAAAAAAAAACGTACACATATTATGTTATTT [XGTACX_site5264]	7.41
AAAAAAAAGTTGTATTGTACAAAAAAAAAAAAAAAA [XGTACX_site8334]	7.08
TCATAAAAACTAATACGTACTTAAAAATATGAACTT [XGTACX_site2939]	6.99
AATCCCCACTTGTCAAGTACATATATCATGGATGAA [XGTACX_site3486]	6.97
TATTTATAACAAAGGTTAAATTAAAACTAATCCACA [TGCATGCA_negctrl_site3]	6.73
GCCAAAATCTAATTTACACACTTATTAAATAATTAC [CACACA_site6251]	7.14
GACATAGTCATATACTGTACTTTATATTATTGTGTA [XGTACX_site6636]	7.11
TTTTTTTTCATTGGTTGTACAATATTTATAATTCAC [XGTACX_site7036]	7.24
TACAGATATAAACACACACACATATATATATATATA [CACACA_site4846]	9.51
TTTTTTTTTTTTTTTTGTACTTATAAAAAATTTTTT [XGTACX_site1249]	6.99

Sequence	gcPBM binding intensity (ln)
ATGTAATATTTACAACGTACAAATTATAAACATATT [XGTACX_site603]	6.93
TCATATTGGCTGTTCTGTACTTATAAGTTTTAAAGA [XGTACX_site5593]	7.36
TTTGTTAATATAAAAACACACAAAAATAACATAAAA [CACACA_site2619]	7.08
AAGGGAAAAAAAAAAGCACACATACGTAAATATATA [CACACA_site7960]	6.92
AAAAGATAAAATTATGCACACATACGAATAATTTTA [CACACA_site8497]	7.1
TATTTCACACAGTATATATATATATATATATATATA [TGCATGCA_negctrl_site118]	9.5
ATCTGACAAAAGTGTACACATATATATATATATATA [CACACA_site4814]	9.49
AAATGGGAAATTTCATGTACTCATTTACCCTTATTA [XGTACX_site4740]	6.51
CACATAATGAAAAATACACACATGTATATTTATAAA [CACACA_site2736]	6.75
GTTAATTTTTGTATAGTGCAAAAATATAATAGTATG	8.85
TGTTGGTATGTGAATGCATGCATATAAGTCTATCTG [TGCATGCA_site780]	7
TTGAAGTATAATAAAGTGCAAAATTATAATGATCTT [GTGCAC_site9639]	7.94
TGGATATATGTAAAAATTGCAAGAAAGATAAAAGGA [CACACA_negctrl_site64]	7.68
ATTATGATATATATATGTACATATATATAATATAAT [XGTACX_site259]	7.05
TCTATGAATTAATATGCATGTAACGTATTTATACTT [TGCATGCA_site669]	6.9
AAAAAAAAAAAAAGTGCACACTTTTAATATAAATAT [CACACA_site3314]	10.8
TTTTTTTTTTTCCTTACACACATATTTCATTTTATA [CACACA_site747]	6.94
TTTTTATTTTTTAGTAGTACACACTTTTTGAACCTT [XGTACX_site1091]	7.04
TTTTATATATATTATACACACAAGGAAAAAAAAAAA [CACACA_site3677]	6.95
TATAAAAGGAAACACACACACATATATATATATATA [CACACA_site939]	9.34
TTATAATATAAAAAATGTACATTAAAAAAAAAGATT [XGTACX_site8950]	7
AAGTATCAAAAATAAAGTACATATTTTGTAGGCAGG [XGTACX_site1463]	7.14

Sequence	gcPBM binding intensity (ln)
CAAAAAATATATTTTTGTACTTATGTTTTTATTTTG [XGTACX_site5230]	6.96
TAGTATAATATGAACACACACACACCCACAAAAAAA [CACACA_site2009]	7.18
CTTGGTAGTTTTTTCTTATAATCTAATTATTAATAA [CACACA_negctrl_site153]	7.27
ATATATTAATATGTGTGTACTTAACCATTCATATGT [XGTACX_site7395]	7.13
TTAATATATAATAAATTTTTTTTTTTTTTTTTTTTT [CACACA_negctrl_site892]	8.04
TTAATATGAAAACTCTGTACCCAACCTTCTTATGGA [XGTACX_site2126]	6.83
TATATAAATATATAATGTACGTTTTAAAAATAATAT [XGTACX_site3881]	7.35
ATATAATAAATGTAGGTGCATAAAAATATTTTGTTA [GTGCAC_site9780]	10
TTAACCACTAAAAGTACACACATATATACCTATATA [CACACA_site6026]	7.05
TTTTAATAATATGGATGTACATAAAAATAAATAAAT [XGTACX_site7937]	7.47
TAGTATTATTTTTTTTGTACATATAAATGTAAAATA [XGTACX_site5282]	7
AAAACATAAATACATACACACATAATATATATTAAG [CACACA_site4239]	7.05
TTTTTTTAAAATATGAGTACATAATATTGTAAAAAT [XGTACX_site6536]	6.82
ATACATATACACATTTGTACATATTCCTTTTTATCG [XGTACX_site1731]	7.02
TTATTTAAAATGAAAAGTACATATTACTTTCTCACA [XGTACX_site5043]	7.01
TCTTGTTTTAATTTTTATATTATTATTTAGATATAT [CACACA_negctrl_site921]	7.2
TACTAAATGATCATATGTACACATGTTTACTTTTTA [XGTACX_site1253]	7.01
AATATATATATATATATATATATTTCAATATATAAA [XGTACX_negctrl_site187]	7.79
ATGATAATTATTAAGGGTACATAAAAATATATCTAT [XGTACX_site8969]	7.05
TATAATTATTTTTTCACACATATGTATTTATATATA [CACACA_site4205]	7.09
ATTATTTAACATGTGGACACAAAAATTTAAGGGTTC [CACACA_negctrl_site1269]	7.25
AGATATATATATAGGTGTACTGGAATGAAATTGTTT [XGTACX_site8200]	6.94

Sequence	gcPBM binding intensity (ln)
AATATATTAAATATTACACACATACATTTAGTGGAA [CACACA_site8609]	6.92
TACTAAGAAAAGAACTGTACATAGAATATACCCAAG [XGTACX_site4757]	6.71
AATATCAAAAAAAAAAAAAAAAAAAAAAAAAAAAAA [CACACA_negctrl_site288]	6.99
TAAATATAATCTAAATGTACATGACATAATTTTTTT [XGTACX_site2856]	6.86
TAAAATATTTTTTGTAGTACCTTAATATTTTTGAAG [XGTACX_site3048]	6.92
GTGTAATATGAAATGTGTACACACGCACACACAAAA [XGTACX_site6180]	7.6
AATAAATACTAAATGGTGCAAAATTTTTTAACACTG	10.7
TTTCAAAAATGAGTTACACACACACCGATATATATA [CACACA_site5263]	7.49
AGCCACCATATTTACACACACATCAAAATGTATTAA [CACACA_site1816]	7.13
TATATATATTATAGATGTACTTTCATATATATGTTT [XGTACX_site8189]	7.51
ATGTATATTTTTAAAAGTACAGAATTTTCATATGAA [XGTACX_site5754]	6.85
ATATACAATACAAAAACACACACAAAAAAAGAAAAG [CACACA_site8668]	7.07
ATAGTATCTGGTAGCTGTACGAGTCGTAGAGTCTAA [XGTACX_site2539]	6.7
TATTTATTTATGTACGCACACAGTTGATATTAATTC [CACACA_site2754]	7.41
ATATATATATATATATGTACATAATTAATAGCATAT [XGTACX_site1428]	9.51
GAAAAAGATGCGCATACACACAGATGAATAACAAAA [CACACA_site1628]	7.12
ATCATATTTATGTTGGTGCATTATACATAAAGTTTA [GTGCAC_site9574]	10.2
AAAATAAGAAAACAAATGCACACCATTTATATAGAT [CACACA_site1055]	7.08
TATATAATAAGAAAATATGTGCGTAGTTCAGCAAAA [XGTACX_negctrl_site304]	7.1
AATTGGATAAACCAATTGGATTATAATACGATATAT [CACACA_negctrl_site275]	6.9
GAAAAATATATTCTGGTGCATGAATAAAATCATAAA	10.2
TATTCATCACTTTTTTGTACTTATGGATAAAATTTT [XGTACX_site3349]	7.19
